Data taken from PMC6919601, “Identification of Plasmodium dipeptidyl aminopeptidase allosteric inhibitors by high throughput screening” (PLoS ONE, 2019).
Values joined by “and” are separate entries in the source; they are usually repeats but may differ in a detail not shown here. Identical values can stand only once. The campaign covered roughly 110,000 compounds. About 230 (0.21%) showed an effect of 50% or more. Some of the results follow.
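Further: 30 min substrate incubation versus DMSO and 10 µM JCP410 controls.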

These compounds were tested against DPAP1 (Plasmodium falciparum, UniProt Q8IIJ9) (assay: primary screen, percent inhibition; read by cleavage of a fluorogenic dipeptide substrate; higher = more effect of the substance).
DPAP1, sequence (Q8IIJ9 whole entry, looked up): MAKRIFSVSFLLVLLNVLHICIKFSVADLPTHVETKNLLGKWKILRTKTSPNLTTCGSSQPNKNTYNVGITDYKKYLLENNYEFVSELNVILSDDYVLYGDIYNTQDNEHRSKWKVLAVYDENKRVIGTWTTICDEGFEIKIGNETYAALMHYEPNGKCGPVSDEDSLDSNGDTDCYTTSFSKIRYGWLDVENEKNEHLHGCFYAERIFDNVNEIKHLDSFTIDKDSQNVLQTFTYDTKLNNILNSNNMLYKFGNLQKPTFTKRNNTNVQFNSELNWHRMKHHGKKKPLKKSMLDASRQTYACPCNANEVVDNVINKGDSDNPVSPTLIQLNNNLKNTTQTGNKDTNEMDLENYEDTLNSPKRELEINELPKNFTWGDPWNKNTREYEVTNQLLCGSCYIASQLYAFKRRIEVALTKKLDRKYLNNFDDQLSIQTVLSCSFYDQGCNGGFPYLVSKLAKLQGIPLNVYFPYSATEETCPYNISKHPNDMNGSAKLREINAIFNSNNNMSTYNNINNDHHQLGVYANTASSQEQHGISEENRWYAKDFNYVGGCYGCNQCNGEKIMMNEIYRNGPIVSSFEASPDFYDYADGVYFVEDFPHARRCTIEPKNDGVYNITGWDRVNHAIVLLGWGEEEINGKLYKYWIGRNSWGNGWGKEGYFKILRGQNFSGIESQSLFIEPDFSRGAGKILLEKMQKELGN
Parameters: species or system P. falciparum D10 trophozoite lysates; single well
For `Cc1c(Cl)cccc1NC(C)CCc1ccc(O)cc1` (centres unmarked), the “% Inhibition @ 10 uM” value was -5.44%. With `CC(C)Oc1ccc(NC(N)=O)cc1` the “% Inhibition @ 10 uM” value was -1.76%. For `O=C(Nc1cccc(Cl)c1)c1ccc(F)cc1`, the “% Inhibition @ 10 uM” value was 2.47%. `CC(C)(C)C(=O)NCCc1nc2ccccc2n1CCc1ccccc1` was tested, and the “% Inhibition @ 10 uM” value was 4.3%. With `Cc1ccc(CSc2n[nH]c(N)n2)c(C)c1` the “% Inhibition @ 10 uM” value was -3.36%. In the case of `N=C1/C(=C/c2ccc(SCc3ccccc3)o2)C(=O)N=C2SC=CN12`, the “% Inhibition @ 10 uM” value is reported as -9.07%. With `COc1ccc(CN2CCN(Cc3cc(OC)c(OC)c(OC)c3)CC2)cc1Br` the “% Inhibition @ 10 uM” value was -3.49%. In the case of `CCOC(=O)c1sc(N2C(=O)C(O)=C(C(=O)c3ccco3)C2c2ccco2)nc1C` (centres unmarked), the “% Inhibition @ 10 uM” value is reported as 3.8%. With `CC1(C)CC(=O)C(/C=N/CCN2CCN(C(=O)Cc3ccc(Cl)cc3)CC2)=C(O)C1` the “% Inhibition @ 10 uM” value was 4.32% and 1.26%. `CCN(CC)CCN1CC(=O)C(c2nc3ccccc3[nH]2)=C1N` was tested, and the “% Inhibition @ 10 uM” value was -1.22%. With `CCOc1cc(C2C=C(c3ccc(OC)cc3)Nc3nnnn32)ccc1OC(F)F` (centres unmarked) the “% Inhibition @ 10 uM” value was -3.37%. For `CCOC(=O)c1c(C)[nH]c(C)c1S(=O)(=O)N(C)Cc1ccco1`, the “% Inhibition @ 10 uM” value was -10%. For `CCN1C(C(=O)c2ccccc2)=C(OC(=O)c2ccccc2Cl)c2ccccc2S1(=O)=O`, the “% Inhibition @ 10 uM” value was 3.74%. `CCC(C)[C@@H](C(=O)NCc1ccc(F)cc1)N1Cc2ccccc2C1=O` (some centres unmarked) was tested, and the “% Inhibition @ 10 uM” value was -2.25%. In the case of `CC1=C(c2ccc(C)c(C)c2)S(=O)(=O)N(CC(=O)NCc2ccccc2Cl)C1=O`, the “% Inhibition @ 10 uM” value is reported as 0.762%. With `O=C(CC(c1ccccc1)c1c(O)c2ccccc2oc1=O)c1ccc(-c2ccccc2)cc1` (centres unmarked) the “% Inhibition @ 10 uM” value was -3.38%. With `Cc1oc2c(c1C(=O)NC(C)(C)C)C(=O)c1ccccc1C2=O` the “% Inhibition @ 10 uM” value was -5.41%. In the case of `O=C(O)CCNCc1cccs1`, the “% Inhibition @ 10 uM” value is reported as 4.61%. In the case of `O=C(COc1ccc(Cl)cc1)Nc1ccccn1`, the “% Inhibition @ 10 uM” value is reported as 5.59%. In the case of `O=C(NCCO)c1cccc2c1-c1ccccc1C2=O`, the “% Inhibition @ 10 uM” value is reported as 1.05%. With `Cc1noc(C)c1CCC(=O)O` the “% Inhibition @ 10 uM” value was 2.29%. In the case of `COc1ccc(CCNc2cnn(C34C[C@@H]5C[C@@H](CC(C(=O)O)(C5)C3)C4)c(=O)c2Cl)cc1OC`, the “% Inhibition @ 10 uM” value is reported as -2.8%. With `O=c1[nH]c2ccccc2c(=O)n1CCSc1ccc(Cl)cc1` the “% Inhibition @ 10 uM” value was 1.92%. With `CC(C)C(=O)/N=C1\SC2CS(=O)(=O)CC2N1CCc1ccccc1` (centres unmarked) the “% Inhibition @ 10 uM” value was -1.15%. For `NC(=O)CN(c1ccc(F)cc1)S(=O)(=O)c1ccc2c(c1)OCCO2`, the “% Inhibition @ 10 uM” value was 14.6%. For `O=C(Nc1ccc(F)cc1F)c1cc2nc(C(F)F)cc(C(F)F)n2n1`, the “% Inhibition @ 10 uM” value was -3.72%. With `CC(O)CN(CC(C)O)CC(c1ccccc1)c1ccccc1` (centres unmarked) the “% Inhibition @ 10 uM” value was -8.99%. `Cc1ccc(S(=O)(=O)c2nnn3c2nc(NC(C)c2ccccc2)c2ccccc23)cc1` (centres unmarked) was tested, and the “% Inhibition @ 10 uM” value was -12.6%. `COc1ccc(-c2c(Cc3ccccc3)nn3c(O)c4c(nc23)CCCC4)cc1` was tested, and the “% Inhibition @ 10 uM” value was 3.32%. For `c1cncc(-c2nn3c(Cn4nnc5ccccc54)nnc3s2)c1`, the “% Inhibition @ 10 uM” value was 4.47%. For `CSc1ncc(C(=O)Nc2cccnc2)c(C(F)(F)F)n1`, the “% Inhibition @ 10 uM” value was -0.401%. In the case of `COc1ccccc1CN1CCCC1`, the “% Inhibition @ 10 uM” value is reported as 1.08%. For `CCc1c(C#N)c(N)nc(SCC(=O)c2cc3ccccc3oc2=O)c1C#N`, the “% Inhibition @ 10 uM” value was -4.26%. With `O=C(c1cccc(F)c1)N1CCN(Cc2ccccc2)CC1` the “% Inhibition @ 10 uM” value was 11%. `CCOc1ccc(NS(=O)(=O)c2ccc(NC(=O)c3ccccc3)cc2)cc1` was tested, and the “% Inhibition @ 10 uM” value was 0.727%. In the case of `Cc1ccc(NC(=O)CCn2cnc3onc(-c4ccc(F)cc4)c3c2=O)nc1`, the “% Inhibition @ 10 uM” value is reported as 4.58%. With `COc1cccc(-c2cc(C(=O)NC3CC3)c3ccccc3n2)c1` the “% Inhibition @ 10 uM” value was 2.08%. In the case of `Cc1cccc(NC(=O)C(NC(=O)c2ccccc2)C(C)C)n1` (centres unmarked), the “% Inhibition @ 10 uM” value is reported as -8.55%. `CC12CC=CCC1C(=O)N(c1ccc(Br)cc1)C2=O` (centres unmarked) was tested, and the “% Inhibition @ 10 uM” value was -4.71%. `CC(C)(C)NC(=O)c1cnn(-c2ccccc2)c1-n1cccc1` was tested, and the “% Inhibition @ 10 uM” value was 6.16%. With `C/C(=N\Cc1ccc(Cl)cc1)C1=C(O)c2ccccc2C1=O` the “% Inhibition @ 10 uM” value was -4.68%. In the case of `CC(C)c1ccc(S(=O)(=O)NCC(=O)O)cc1`, the “% Inhibition @ 10 uM” value is reported as -4.85%. `Cc1ccccc1CNC(=O)c1ccc(CN(c2ccccc2)S(C)(=O)=O)cc1` was tested, and the “% Inhibition @ 10 uM” value was -3.71%. `O=C(CCc1nnc2n(Cc3ccc(Cl)cc3)c(=O)c3ccccc3n12)N1CCc2ccccc2C1` was tested, and the “% Inhibition @ 10 uM” value was 0.981%. For `CC(C)c1cc(C(C)C)c(S(=O)(=O)N2CCCC2)c(C(C)C)c1`, the “% Inhibition @ 10 uM” value was 3.54%. In the case of `O=C(NC1(C(F)(F)F)C(=O)Nc2c1c(=O)[nH]c(=O)n2-c1ccccc1)c1ccccc1F` (centres unmarked), the “% Inhibition @ 10 uM” value is reported as 3.8%. In the case of `CC1=C(c2ccc(C)cc2)S(=O)(=O)N=C1NCCC(C)C`, the “% Inhibition @ 10 uM” value is reported as 3.87%. With `O=C(Nc1ccc(S(=O)(=O)N2CCCC2)cc1)c1ccc(F)cc1` the “% Inhibition @ 10 uM” value was -0.173%. With `COc1cc2nc(S)n3nc(-c4cccnc4)nc3c2cc1OC` the “% Inhibition @ 10 uM” value was 3.61%. For `COc1ccc(C2=N/C(=C\c3ccc4c(c3)OCO4)C(=O)O2)cc1`, the “% Inhibition @ 10 uM” value was -2.18%. `COc1ccc(OC)c(CNCc2c(C(=O)O)n(C)c3cc(OC)ccc23)c1` was tested, and the “% Inhibition @ 10 uM” value was -4.76%. `O=C(/C=C/c1ccccc1)Nc1cccc(Cl)c1Cl` was tested, and the “% Inhibition @ 10 uM” value was 0.317%. With `CCCOC(=O)C1=C(C)NC(=O)NC1c1ccccc1Cl` (centres unmarked) the “% Inhibition @ 10 uM” value was 3.61%. With `Cc1ccc(CNC(=O)c2cc(S(=O)(=O)N3CCCCC3)c[nH]2)cc1` the “% Inhibition @ 10 uM” value was 2.51%. In the case of `COc1cc(CN2CCSCC2)cc2c1OCO2`, the “% Inhibition @ 10 uM” value is reported as -4.15%. With `COCCN(Cc1ccc(C)c(Br)c1)S(=O)(=O)c1c[nH]c(C(=O)OC)c1` the “% Inhibition @ 10 uM” value was -7.84%. `CN(C=O)CP(=O)(O)CN1CCCCC1` was tested, and the “% Inhibition @ 10 uM” value was -3.14%. For `Cc1cccc2sc(N(CCCN(C)C)C(=O)c3ccco3)nc12`, the “% Inhibition @ 10 uM” value was -1.6%. In the case of `CC(C)(Oc1ccc(Cl)cc1)C(=O)NCc1cccnc1`, the “% Inhibition @ 10 uM” value is reported as -15.1%. `O=C1CSc2ccccc2N1Cc1ccccc1` was tested, and the “% Inhibition @ 10 uM” value was 12.2%. For `CCO/C(O)=C1\C(C)=NC2=C(C(=O)CC(C)(C)C2)C1c1ccc(OC)c(OC)c1OC` (centres unmarked), the “% Inhibition @ 10 uM” value was 4.1%. In the case of `Clc1ccc(OCCCCCCN2CCCCC2)cc1`, the “% Inhibition @ 10 uM” value is reported as -0.351%. In the case of `Cc1nc(C)c(Cc2cccc3ccccc23)c(O)n1`, the “% Inhibition @ 10 uM” value is reported as -0.48%. In the case of `COc1ccc(C2NCCc3cc(OC)c(OC)cc32)cc1` (centres unmarked), the “% Inhibition @ 10 uM” value is reported as -1.8%. `O=c1/c(=C/c2cn(-c3ccccc3)nc2-c2cccs2)sc2nc(-c3ccncc3)nn12` was tested, and the “% Inhibition @ 10 uM” value was 1.52%.
